{"source": "patent US20220281949A1", "about": "(UNIVERSITY HEALTH NETWORK, published 2022)", "target": "T1, recombinant 10× His-tagged CD4 protein (extracellular domain of human CD4, GS linker, 10× histidine tag) (human)", "T1 construct": "Expressed in A375 cells, purified on TALON resin; The text says […] of, whereas the printed construct ends at ...KVLPTW; also called soluble CD4; recombinant CD4", "test": "biolayer interferometry (Octet Red), biotinylated DR1 on streptavidin biosensors, soluble CD4 0.8125 to 26 µM, steady-state one-site fit", "data": [{"binder": "biotinylated recombinant DR1^L114W/V143M+2reps protein (DRA1*01:01 and mutant DRB1*01:01 extracellular domains with leucine zippers) (peptide-MHC, also called biotinylated HLA-DR1) MHC II alpha: not shown MHC II beta: GDTRPRFLWQLKFECHFFNGTERVRLLERCIYNQEESVRFDSDVGEYRAVTELGRPDAEYWNSQKDLLEQRRAAVDTYCRHNYGVGESFTVQRRVEPKVTVYPSKTQPLQHHNWLVCHVSGFYPGSIEVRWFRNGQEEKAGVMSTGLIQNGDWTFQILVMLETVPRSGEVYTCQVEHPSVTSPLTVEWRARSESAQSKGGGGSLEIEAAFLERENTALETRVAELRQRVQRLRNRVSQYRTRYGPLGGGKGSGLNDIFEAQKIEWHE", "values": [{"measurement": "Kd", "result": 14, "unit": "µM"}]}]}
